Here are results for nine molecules from the supplement of paper PMC12423691.

Sequences and labels used below:
B1: MYCL, P12524 (protein)
chain: MDYDSYQHYFYDYDCGEDFYRSTAPSEDIWKKFELVPSPPTSPPWGLGPGAGDPAPGIGPPEPWPGGCTGDEAESRGHSKGWGRNYASIIRRDCMWSGFSARERLERAVSDRLAPGAPRGNPPKASAAPDCTPSLEAGNPAPAAPCPLGEPKTQACSGSESPSDSENEEIDVVTVEKRQSLGIRKPVTITVRADPLDPCMKHFHISIHQQQHNYAARFPPESCSQEEASERGPQEEVLERDAAGEKEDEEDEEIVSPPPVESEAAQSCHPKPVSSDTEDVTKRKNHNFLERKRRNDLRSRFLALRDQVPTLASCSKAPKVVILSKALEYLQALVGAEKRMATEKRQLRCRQQQLQKRIAYLTGY
B2: ZNF260, Q3ZCT1 (protein)
chain: MIGMLESLQHESDLLQHDQIHTGEKPYECNECRKTFSLKQNLVEHKKMHTGEKSHECTECGKVCSRVSSLTLHLRSHTGKKAYKCNKCGKAFSQKENFLSHQKHHTGEKPYECEKVSIQMPTIIRHQKNHTGTKPYACKECGKAFNGKAYLTEHEKIHTGEKPFECNQCGRAFSQKQYLIKHQNIHTGKKPFKCSECGKAFSQKENLIIHQRIHTGEKPYECKGCGKAFIQKSSLIRHQRSHTGEKPYTCKECGKAFSGKSNLTEHEKIHIGEKPYKCNECGTIFRQKQYLIKHHNIHTGEKPYECNKCGKAFSRITSLIVHVRIHTGDKPYECKVCGKAFCQSSSLTVHMRSHTGEKPYGCNECGKAFSQFSTLALHMRIHTGEKPYQCSECGKAFSQKSHHIRHQRIHTH
B3: TCF4, P15884 (protein)
chain: MHHQQRMAALGTDKELSDLLDFSAMFSPPVSSGKNGPTSLASGHFTGSNVEDRSSSGSWGNGGHPSPSRNYGDGTPYDHMTSRDLGSHDNLSPPFVNSRIQSKTERGSYSSYGRESNLQGCHQQSLLGGDMDMGNPGTLSPTKPGSQYYQYSSNNPRRRPLHSSAMEVQTKKVRKVPPGLPSSVYAPSASTADYNRDSPGYPSSKPATSTFPSSFFMQDGHHSSDPWSSSSGMNQPGYAGMLGNSSHIPQSSSYCSLHPHERLSYPSHSSADINSSLPPMSTFHRSGTNHYSTSSCTPPANGTDSIMANRGSGAAGSSQTGDALGKALASIYSPDHTNNSFSSNPSTPVGSPPSLSAGTAVWSRNGGQASSSPNYEGPLHSLQSRIEDRLERLDDAIHVLRNHAVGPSTAMPGGHGDMHGIIGPSHNGAMGGLGSGYGTGLLSANRHSLMVGTHREDGVALRGSHSLLPNQVPVPQLPVQSATSPDLNPPQDPYRGMPPGLQGQSVSSGSSEIKSDDEGDENLQDTKSSEDKKLDDDKKDIKSITSNNDDEDLTPEQKAEREKERRMANNARERLRVRDINEAFKELGRMVQLHLKSDKPQTKLLILHQAVAVILSLEQQVRERNLNPKAACLKRREEEKVSSEPPPLSLAGPHPGMGDASNHMGQM
B4: ZNF131, P52739 (protein)
chain: MEAEETMECLQEFPEHHKMILDRLNEQREQDRFTDITLIVDGHHFKAHKAVLAACSKFFYKFFQEFTQEPLVEIEGVSKMAFRHLIEFTYTAKLMIQGEEEANDVWKAAEFLQMLEAIKALEVRNKENSAPLEENTTGKNEAKKRKIAETSNVITESLPSAESEPVEIEVEIAEGTIEVEDEGIETLEEVASAKQSVKYIQSTGSSDDSALALLADITSKYRQGDRKGQIKEDGCPSDPTSKQVEGIEIVELQLSHVKDLFHCEKCNRSFKLFYHFKEHMKSHSTESFKCEICNKRYLRESAWKQHLNCYHLEEGGVSKKQRTGKKIHVCQYCEKQFDHFGHFKEHLRKHTGEKPFECPNCHERFARNSTLKCHLTACQTGVGAKKGRKKLYECQVCNSVFNSWDQFKDHLVIHTGDKPNHCTLCDLWFMQGNELRRHLSDAHNISERLVTEEVLSVETRVQTEPVTSMTIIEQVGKVHVLPLLQVQVDSAQVTVEQVHPDLLQDSQVHDSHMSELPEQVQVSYLEVGRIQTEEGTEVHVEELHVERVNQMPVEVQTELLEADLDHVTPEIMNQEERESSQADAAEAAREDHEDAEDLETKPTVDSEAEKAENEDRTALPVLE
B5: ARHGEF2, Q92974 (protein)
chain: MSRIESLTRARIDRSRELASKTREKEKMKEAKDARYTNGHLFTTISVSGMTMCYACNKSITAKEALICPTCNVTIHNRCKDTLANCTKVKQKQQKAALLKNNTALQSVSLRSKTTIRERPSSAIYPSDSFRQSLLGSRRGRSSLSLAKSVSTTNIAGHFNDESPLGLRRILSQSTDSLNMRNRTLSVESLIDEAEVIYSELMSDFEMDEKDFAADSWSLAVDSSFLQQHKKEVMKQQDVIYELIQTELHHVRTLKIMTRLFRTGMLEELHLEPGVVQGLFPCVDELSDIHTRFLSQLLERRRQALCPGSTRNFVIHRLGDLLISQFSGPSAEQMCKTYSEFCSRHSKALKLYKELYARDKRFQQFIRKVTRPAVLKRHGVQECILLVTQRITKYPLLISRILQHSHGIEEERQDLTTALGLVKELLSNVDEGIYQLEKGARLQEIYNRMDPRAQTPVPGKGPFGREELLRRKLIHDGCLLWKTATGRFKDVLVLLMTDVLVFLQEKDQKYIFPTLDKPSVVSLQNLIVRDIANQEKGMFLISAAPPEMYEVHTASRDDRSTWIRVIQQSVRTCPSREDFPLIETEDEAYLRRIKMELQQKDRALVELLREKVGLFAEMTHFQAEEDGGSGMALPTLPRGLFRSESLESPRGERLLQDAIREVEGLKDLLVGPGVELLLTPREPALPLEPDSGGNTSPGVTANGEARTFNGSIELCRADSDSSQRDRNGNQLRSPQEEALQRLVNLYGLLHGLQAAVAQQDTLMEARFPEGPERREKLCRANSRDGEAGRAGAAPVAPEKQATELALLQRQHALLQEELRRCRRLGEERATEAGSLEARLRESEQARALLEREAEEARRQLAALGQTEPLPAEAPWARRPVDPRRRSLPAGDALYLSFNPPQPSRGTDRLDLPVTTRSVHRNFEDRERQELGSPEERLQDSSDPDTGSEEEGSSRLSPPHSPRDFTRMQDIPEETESRDGEAVASES
B6: POU4F2, Q12837 (protein)
chain: MMMMSLNSKQAFSMPHGGSLHVEPKYSALHSTSPGSSAPIAPSASSPSSSSNAGGGGGGGGGGGGGGGRSSSSSSSGSSGGGGSEAMRRACLPTPPSNIFGGLDESLLARAEALAAVDIVSQSKSHHHHPPHHSPFKPDATYHTMNTIPCTSAASSSSVPISHPSALAGTHHHHHHHHHHHHQPHQALEGELLEHLSPGLALGAMAGPDGAVVSTPAHAPHMATMNPMHQAALSMAHAHGLPSHMGCMSDVDADPRDLEAFAERFKQRRIKLGVTQADVGSALANLKIPGVGSLSQSTICRFESLTLSHNNMIALKPILQAWLEEAEKSHREKLTKPELFNGAEKKRKRTSIAAPEKRSLEAYFAIQPRPSSEKIAAIAEKLDLKKNVVRVWFCNQRQKQKRMKYSAGI
B7: TFE3, P19532 (protein)
chain: MSHAAEPARDGVEASAEGPRAVFVLLEERRPADSAQLLSLNSLLPESGIVADIELENVLDPDSFYELKSQPLPLRSSLPISLQATPATPATLSASSSAGGSRTPAMSSSSSSRVLLRQQLMRAQAQEQERRERREQAAAAPFPSPAPASPAISVVGVSAGGHTLSRPPPAQVPREVLKVQTHLENPTRYHLQQARRQQVKQYLSTTLGPKLASQALTPPPGPASAQPLPAPEAAHTTGPTGSAPNSPMALLTIGSSSEKEIDDVIDEIISLESSYNDEMLSYLPGGTTGLQLPSTLPVSGNLLDVYSSQGVATPAITVSNSCPAELPNIKREISETEAKALLKERQKKDNHNLIERRRRFNINDRIKELGTLIPKSSDPEMRWNKGTILKASVDYIRKLQKEQQRSKDLESRQRSLEQANRSLQLRIQELELQAQIHGLPVPPTPGLLSLATTSASDSLKPEQLDIEEEGRPGAATFHVGGGPAQNAPHQQPPAPPSDALLDLHFPSDHLGDLGDPFHLGLEDILMEEEEGVVGGLSGGALSPLRAASDPLLSSVSPAVSKASSRRSSFSMEEES
B8: PURB, Q96QR8 (protein)
chain: MADGDSGSERGGGGGPCGFQPASRGGGEQETQELASKRLDIQNKRFYLDVKQNAKGRFLKIAEVGAGGSKSRLTLSMAVAAEFRDSLGDFIEHYAQLGPSSPEQLAAGAEEGGGPRRALKSEFLVRENRKYYLDLKENQRGRFLRIRQTVNRGGGGFGAGPGPGGLQSGQTIALPAQGLIEFRDALAKLIDDYGGEDDELAGGPGGGAGGPGGGLYGELPEGTSITVDSKRFFFDVGCNKYGVFLRVSEVKPSYRNAITVPFKAWGKFGGAFCRYADEMKEIQERQRDKLYERRGGGSGGGEESEGEEVDED
B9: ZNF438, Q7Z4V0 (protein)
chain: MQNSVSVPPKDEGESNIPSGTIQSRKGLQNKSQFRTIAPKIVPKVLTSRMLPCHSPSRSDQVNLGPSINSKLLGMSTQNYALMQVAGQEGTFSLVALPHVASAQPIQKPRMSLPENLKLPIPRYQPPRNSKASRKKPILIFPKSGCSKAPAQTQMCPQMSPSPPHHPELLYKPSPFEEVPSLEQAPASISTAALTNGSDHGDLRPPVTNTHGSLNPPATPASSTPEEPAKQDLTALSGKAHFVSKITSSKPSAVASEKFKEQVDLAKTMTNLSPTILGNAVQLISSVPKGKLPIPPYSRMKTMEVYKIKSDANIAGFSLPGPKADCDKIPSTTEGFNAATKVASRLPVPQVSQQSACESAFCPPTKLDLNHKTKLNSGAAKRKGRKRKVPDEILAFQGKRRKYIINKCRDGKERVKNDPQEFRDQKLGTLKKYRSIMPKPIMVIPTLASLASPTTLQSQMLGGLGQDVLLNNSLTPKYLGCKQDNSSSPKPSSVFRNGFSGIKKPWHRCHVCNHHFQFKQHLRDHMNTHTNRRPYSCRICRKSYVRPGSLSTHMKLHHGENRLKKLMCCEFCAKVFGHIRVYFGHLKEVHRVVISTEPAPSELQPGDIPKNRDMSVRGMEGSLERENKSNLEEDFLLNQADEVKLQIKCGRCQITAQSFAEIKFHLLDVHGEEIEGRLQEGTFPGSKGTQEELVQHASPDWKRHPERGKPEKVHSSSEESHACPRLKRQLHLHQNGVEMLMENEGPQSGTNKPRETCQGPECPGLHTFLLWSHSGFNCLLCAEMLGRKEDLLHHWKHQHNCEDPSKLWAILNTVSNQGVIELSSEAEK

The other results are listed elsewhere or left out. Binding of human transcription factors and regulators to the viral nucleoprotein by AlphaScreen, crude cell-free proteins, amounts not normalised, one pass. Fold of the Venus control; higher = more signal. No active / inactive call. Single-pass screen; sequences are the whole Swiss-Prot entries looked up by name.

This test has as its target nucleoprotein N of Crimean-Congo hemorrhagic fever virus. Briefly: AlphaScreen luminescence signal relative to Venus negative control (fold); higher = stronger binding to CCHFV N. How it is done:
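AlphaScreen binding of cell-free made, FLAG-GST-tagged human transcription factors and regulators (crude translation products) to biotinylated N protein; signal as fold of the FLAG-GST-Venus control. One pass.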
(Alpha assays give light when donor and acceptor beads are brought close together.)
On to B1, for which the AlphaScreen luminescence signal was 2.42.
Molecule B2 displayed an AlphaScreen luminescence signal of 2.56.
For B3 the value was 2.
For B4 the value was 1.86; for B5, 2.7; for B6, 3.4.
For B7 the value was 2.6; for B8, 5.86.
For the molecule B9, the AlphaScreen luminescence signal stood at 2.88.
